# From PubChem BioAssay AID1508624 (National Center for Advancing Translational Sciences (NCATS), 2021)
# Screen size: about 48,000 compounds; about 120 (0.25%) were called active. Inconclusive results (about 4%) are left out. The call rests on the fitted dose curve; in most records, active means well fitted activation curve with a large enough effect; inconclusive means small, poorly fitted or top-dose-only effect, or another doubt; inactive means no such curve, though single readings can be large or run the other way. The list shows a part of the results.
# Test: Primary qHTS for Identification of Small Molecule Activators of Huntingtin-Antisense Promoter Activity; further: nearly all actives have a fitted effect of over 55% in size
# Conditions: HEK293 HTT-AS promoter firefly luciferase reporter, 24 h; series mostly up to 57.5 µM; activity change, positive = activation: at the top concentration
# Outline: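 Firefly luciferase readout (Dual-Glo, 10 min RT) after 24 h, 37 °C compound exposure (final up to 57.5 uM) of HEK293 reporter cells cultured 24 h beforehand; PTC124 at 50 uM final as control inhibitor; activity scaled vehicle 0%, zero RLU -100%.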
row,Compound,"activity change, positive = activation"
1,CCCCN(C)C(=O)c1cn(C)c2ccc(S(=O)(=O)N3CCC(C)CC3)cc2c1=O,"inactive: 15% [at 11.5 µM, percent change from vehicle, -100% = no light]"
2,CN(C)C(=O)Oc1cccc([N+](C)(C)C)c1,inactive: 1.37%
3,O=C(Cn1ccc2cc(S(=O)(=O)N3CCCCC3)ccc21)NCCc1ccccc1Cl,inactive: -32.2%
4,COc1ccccc1NC(=O)Cn1c(=O)n(Cc2ccccc2)c(=O)c2c1c1cc(C)ccc1n2C,inactive: -5.91%
5,CCCCC(=O)OC1=C(C(=O)c2ccccc2)N(CCC)S(=O)(=O)c2ccccc21,inactive: -36%
6,CC(NC(=O)CSc1n[nH]c(-c2ccccc2Cl)n1)c1nc2ccccc2[nH]1 (centres undefined),inactive: -4.76%
7,CC(=O)c1cccc(NC(=O)c2nc(-c3ccccc3)n(-c3ccccc3)n2)c1,inactive: -15.8%
8,O=C1CCCc2cc(S(=O)(=O)N3CCCC(C(=O)NCc4ccccc4)C3)ccc2N1 (centres undefined),inactive: -22.6%
9,COc1cc2c(cc1OC)n(Cc1cccc(C(F)(F)F)c1)c(=O)n1nc(-c3ccccc3)nc21,inactive: -22.2%
10,COc1cccc(NC(=O)CCNS(=O)(=O)c2ccc3c(c2)oc(=O)n3C)c1,inactive: -7.52%
11,CCOC(=O)[C@H](CCc1ccccc1)N[C@@H](C)C(=O)N1Cc2cc(OC)c(OC)cc2C[C@H]1C(=O)O,inactive: -1.56%
12,CCOc1ccc(NS(=O)(=O)c2cc3c(cc2Cl)NC(=O)CO3)cc1,inactive: -14.5%
13,Cc1cc(C)c(NC(=O)CCS(=O)(=O)c2cc3c(cc2Cl)NC(=O)CO3)c(C)c1,inactive: -17.6%
14,CN1CCC(OC(c2ccccc2)c2ccccc2)CC1,inactive: -8.25%
15,O=C(CSCn1nnc2c(=O)[nH]c(Cc3ccc(F)cc3)nc21)Nc1cccc(C(F)(F)F)c1,inactive: -11.7%
16,CC(=O)Nc1ccc(NC(=O)CCCn2nc(C)c3sc4ccccc4c3c2=O)cc1,inactive: -0.76%
17,CCOc1ccc(N(C)S(=O)(=O)c2ccc3c(c2)CCCN3C(C)=O)cc1,inactive: -20.6%
18,COc1cc2c(cc1OC)C(COc1cccc(C(F)(F)F)c1)N(C(=O)c1ccc(S(=O)(=O)N3CCCC3)cc1)CC2 (centres undefined),inactive: -14.3%
19,CCC(C)NC(=O)C1CCN(S(=O)(=O)c2ccc3c(c2)CCCN3C(C)=O)CC1 (centres undefined),inactive: -7.6%
20,CCc1ccccc1NC(=O)C(=O)NCCCN1CCOCC1,inactive: -10%
21,Cc1c(C(=O)Nc2nc(-c3ccc(F)cc3)ns2)oc2ccc(Cl)cc12,inactive: -2.87%
22,Cc1ccc(CCNC(=O)CS(=O)Cc2nc(-c3ccccc3Cl)oc2C)cc1 (centres undefined),inactive: -9.02%
23,O=C(Cc1ccccc1)Nc1sc2c(c1C(=O)Nc1ccc(Br)cc1)CCC2,inactive: -14.8%
24,Cc1ccc2oc(C(=O)Nc3cccc(Cl)c3)cc(=O)c2c1,inactive: -8.5%

row,Compound,"activity change, positive = activation"
1,COc1ccccc1C(=O)Nc1ccccc1OCc1cc(=O)n2ccccc2n1,inactive: 0.436%
2,O=C(CS)Nc1ccccc1,inactive: -23.7%
3,C/C=C1\[C@H]2C=C(C)C[C@]1(N)c1ccc(=O)[nH]c1C2,inactive: -2.38%
4,O=C(Nc1ccc(F)cc1)c1csc2c1CCCCC2,inactive: -95%
5,COc1cccc(N2CC(NC(=O)c3ccc(S(=O)(=O)N4CCOCC4)cc3)CC2=O)c1 (centres undefined),inactive: -11.2%
6,O=C(NCCc1ccccc1)c1nc(-c2ccc(Cl)cc2)n2c1CCCCC2,inactive: -31.2%
7,COc1ccc(CNc2nc3c(-c4ccccc4)nnn3c3ccccc23)cc1,inactive: -1.7%
8,O=C(c1cnn(-c2ccc(F)cc2)c1-n1cccc1)N1CCN(c2ccc(F)cc2)CC1,inactive: -21.6%
9,CCNc1nc(NCc2ccc(F)cc2)c2cnn(C)c2n1,inactive: -30.7%
10,CC1=C(C(=O)Nc2cccc(Cl)c2C)C2(CCCCCC2)OC1=O,inactive: -18.8%
11,CC1CCN(S(=O)(=O)c2ccc3c(c2)CCN3)CC1,inactive: -8.3%
12,O=c1[nH]cnc2[nH]ncc12,inactive
13,COc1ccccc1Nc1sc(C(=O)c2ccc(C)cc2C)c(N)c1S(=O)(=O)c1ccccc1,inactive: -20.4%
14,CCc1ccc(S(=O)(=O)c2nnn3c2nc(Nc2cc(OC)ccc2OC)c2sccc23)cc1,inactive: -4.79%
15,O=S(=O)(NCCS(=O)(=O)N1CCN(c2ccccc2)CC1)c1ccc(Br)cc1,inactive: 0.883%
16,Cc1ccc(C(=O)Nc2cc3c(cc2C)n(C)c(=O)c(=O)n3C)cc1,inactive: -5.79%
17,Cc1cc(O)c2c(c1)C(=O)c1cc(O)cc(O)c1C2=O,inactive: -1.17%
18,CCOC(=O)c1c(-c2ccccc2)oc2ccc(NS(=O)(=O)c3cc(C)c(C)cc3C)cc12,"inactive: 7.65% [at 11.5 µM, percent change from vehicle, -100% = no light]"
19,CCOc1ccccc1CN1CCN(S(=O)(=O)c2ccccc2)CC1,inactive: -1.87%
20,Cc1ccccc1NC(=O)c1ccc2c(c1)c(C)c(C)n2Cc1ccccc1,inactive: -21.8%
21,CC(=O)c1cccc(NC(=O)c2oc3c(c2C)-c2nn(Cc4ccc(Cl)cc4)cc2CC3)c1,inactive: -31.2%
22,O=C(CN1N=C(c2ccc(Cl)cc2)CCC1=O)NCCc1ccc(Cl)cc1,inactive: -22.3%
23,COCc1nc2ccccc2n1CCOc1cccc(C)c1,inactive: -13.4%
24,COc1ccc(S(=O)(=O)N2CCCN(CC(=O)Nc3ccc(NC(C)=O)cc3)CC2)cc1,"inactive: 6.16% [at 11.5 µM, percent change from vehicle, -100% = no light]"

row,Compound,"activity change, positive = activation"
1,Cc1ccc(NC(=O)CN2C(=O)CCc3cc(S(=O)(=O)N4CCOCC4)ccc32)cc1F,inactive: -12.2%
2,COc1ccc(OC)c(CNC(=O)c2ccc(Sc3ccc(C)cc3)c(N)c2)c1,inactive: -43.5%
3,Cn1cc(-c2ccc3nnc(Sc4ccc5ncccc5c4)n3n2)cn1,inactive: 2.2%
4,CCc1ccc(-n2nc(C)c3c(C)cc(=O)n(Cc4nc(-c5ccccc5)oc4C)c32)cc1,inactive: -1.45%
5,COc1ccc(NC(=O)c2oc3ccc(S(=O)(=O)N4CCCCC4)cc3c2C)cc1,inactive: -60.8%
6,CCOc1ccc(CNC(=O)C2Cc3ccccc3N2C(=O)CC)cc1OC (centres undefined),inactive: -8.48%
7,CCCc1nn2c(=O)cc(COC(=O)c3ccccc3NC(=O)COc3ccccc3F)nc2s1,inactive: -12.6%
8,Cc1cccc(CNC(=O)CCn2c(=O)c3cccn3c3ccc(F)cc32)c1,inactive: -1.62%
9,Cc1nc2c(C(=O)NCCCN(CC(C)C)CC(C)C)cnn2c(C)c1Cc1c(F)cccc1Cl,inactive: -21.4%
10,CCCOC(=O)c1c(NC(=O)c2nc3ncccn3n2)sc(C(N)=O)c1C,inactive: 3.07%
11,Cc1cc(C)cc(OCC(=O)Nc2c(C)ccc3nsnc23)c1,inactive: 5.89%
12,COc1ccc(S(=O)(=O)c2cnc3ccc(Cl)cc3c2N2CCCCC2C)cc1 (centres undefined),inactive: -25.2%
13,Cc1ccccc1NC(=O)CSc1nc2nccnc2c(=O)n1CCc1c[nH]c2ccccc12,inactive: -12.8%
14,CCOc1ccc(N(CC)S(=O)(=O)c2cc(Br)cc3c2N(C(C)=O)C(C)C3)cc1 (centres undefined),inactive: -24.5%
15,COc1ccc(NC(=O)CSc2nc(-c3ccco3)cc(C(F)(F)F)n2)cc1OC,inactive: -91.5%
16,CN(Cc1ccccc1)S(=O)(=O)c1nnc(NC(=O)c2cccc(Cl)c2)s1,inactive: -30.5%
17,Cc1cccc(N2CCN(C(=O)Cn3nc(C)n4cccc4c3=O)CC2C)c1 (centres undefined),inactive: -2.49%
18,CCCCN(C)CCCNC(=O)Cn1ncc2c3ccccc3n(Cc3ccccc3)c2c1=O,inactive: -6.41%
19,Cc1cccc(NC(=O)CSc2nccn2Cc2ccc(F)cc2)c1C,inactive: -2.04%
20,CCOC(=O)c1ccc2c(c1)N(CC(=O)N(C)c1ccccc1)C(=O)c1ccccc1S2,inactive: -30.9%
21,COc1ccccc1NC(=O)c1cc(=O)c2ccc(C)c(C)c2o1,"inactive: 26.9% [at 11.5 µM, percent change from vehicle, -100% = no light]"
22,COc1ccc(-c2cn(-c3ccc(C)cc3)c(S(=O)(=O)CC(=O)Nc3ccc(F)cc3)n2)cc1,inactive: -3.53%
23,Cc1ccc(Cc2c(C)nc3nc(SCC(=O)NC4CCC(C)CC4)nn3c2C)cc1 (centres undefined),inactive: -17.6%
24,CCOc1ccc(CCNC(=O)c2cc3c(=O)oc4ccc(C)cc4c3s2)cc1OCC,inactive: -8.8%

row,Compound,"activity change, positive = activation"
1,N#C/C(=C\c1ccc(-c2ccc(C(=O)O)cc2)o1)C(=O)Nc1ccccc1C(=O)O,inactive: -19.3%
2,Cc1nn(CCC(=O)Nc2cc(F)ccc2F)c(=O)c2nn(-c3ccccc3)c(C)c12,inactive: -6.62%
3,CC1CCCCN1C(=O)CSc1n[nH]c(-c2ccccc2Cl)n1 (centres undefined),inactive: 13.7%
4,O=C(CC1N=C2c3ccccc3N=C(SCc3cccc(Cl)c3)N2C1=O)NCc1ccc2c(c1)OCO2 (centres undefined),inactive: -40.4%
5,COc1cc(Nc2nc(SCC(=O)c3ccc(Br)cc3)nc3ccccc23)cc(OC)c1,inactive: -32.7%
6,COc1cccc(CNCCNC(=O)c2nonc2N)c1,inactive: -10.3%
7,COC(=O)c1ccc2c(C(=Nc3ccc(N(C)C(=O)CN4CCN(C)CC4)cc3)c3ccccc3)c(O)[nH]c2c1,inactive: -24.4%
8,Cc1cccc(NS(=O)(=O)c2c(C)nc3sccn3c2=O)c1C,inactive: -28.9%
9,O=C(NCc1ccccc1Cl)c1cc2c(s1)-c1ccc(Cl)cc1SC2,inactive: -0.0486%
10,CCSc1nc2c([nH]c3ccccc32)c(=O)n1CC,inactive: -6.11%
11,CCOc1ccccc1NC(=O)N1CC(CC)Oc2ccccc21 (centres undefined),inactive: -26.3%
12,Cc1ccc(C(=O)CSc2nc(-c3ccccc3)nc3c2CCCC3)cc1,inactive: -13.6%
13,CCOC(=O)CSc1nc(-c2ccc(C)cc2C)cc(-c2ccccc2)c1C#N,inactive: -11.8%
14,COc1cccc(-n2c(=O)c3c(C)c(C)sc3n(CC(=O)NCc3ccc(C)cc3)c2=O)c1,inactive: 14.4%
15,Cc1cccc(CSc2ncc(Cl)c(C(=O)Nc3sc4c(c3C(N)=O)CCCC4)n2)c1,inactive: -6.2%
16,O=C(Cn1c(=O)nc(-c2ccccc2)c2ccccc21)Nc1cccc(C(F)(F)F)c1,inactive: -11.2%
17,Cc1c(C(=O)NCc2cccc(Cl)c2)sc2ncnc(N(C)C3CCCCC3)c12,inactive: -29.3%
18,COc1ccc(C2Nc3ccccc3-c3cc(C)nn32)cc1OC (centres undefined),inactive: -9.5%
19,COc1ccc(CNC(=O)CCCN2C(=O)CSc3c2c(C)nn3-c2ccccc2)cc1,inactive: -18.2%
20,COC(=O)c1cc2sc(C)cc2n1Cc1cccc(OC)c1,inactive: -31.8%
21,CCOC(=O)c1c(-c2ccc(OC)cc2)oc2ccc(OCc3ccccc3C)cc12,inactive: -7.9%
22,CN(C/C=C/C#CC(C)(C)C)Cc1cccc2ccccc12,inactive: -10.1%
